Publication PMC11399591
No constants are given. Whether binding was seen depends on the method and setting. Binding seen in cells or lysates may run through a third protein. Some binding calls cover weakened binding; strength is not graded here.

By UniProt entry, the sequences of proteins in these tests, tags left out. Where a name states a change or a piece, a line headed by the entry shows the natural chain unless it says otherwise. Chains listed by the source or under a name are the forms on record and can include a tag or linker. Residues count along the entry.
Flag-SMURF1-CA (catalytically inactive, C699A) (Q9HCE7, form named): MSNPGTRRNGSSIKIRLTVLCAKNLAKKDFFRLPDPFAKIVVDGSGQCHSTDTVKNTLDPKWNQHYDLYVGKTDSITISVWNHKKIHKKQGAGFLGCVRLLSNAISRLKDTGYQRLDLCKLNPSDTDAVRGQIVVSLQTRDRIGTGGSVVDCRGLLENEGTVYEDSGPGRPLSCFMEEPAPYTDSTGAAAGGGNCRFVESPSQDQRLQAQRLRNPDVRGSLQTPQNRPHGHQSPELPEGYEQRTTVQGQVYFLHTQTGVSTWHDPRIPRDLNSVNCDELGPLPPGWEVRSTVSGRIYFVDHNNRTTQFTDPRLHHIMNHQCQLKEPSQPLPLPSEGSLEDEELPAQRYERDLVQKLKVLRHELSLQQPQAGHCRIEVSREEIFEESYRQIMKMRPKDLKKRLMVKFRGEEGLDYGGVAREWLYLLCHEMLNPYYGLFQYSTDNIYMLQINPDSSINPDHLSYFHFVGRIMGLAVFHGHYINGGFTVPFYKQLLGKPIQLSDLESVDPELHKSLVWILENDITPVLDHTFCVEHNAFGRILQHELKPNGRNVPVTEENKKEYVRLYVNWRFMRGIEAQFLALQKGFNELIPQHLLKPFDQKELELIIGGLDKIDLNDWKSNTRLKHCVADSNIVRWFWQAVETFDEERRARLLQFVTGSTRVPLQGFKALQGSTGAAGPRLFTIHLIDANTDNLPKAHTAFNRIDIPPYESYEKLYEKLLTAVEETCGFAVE
UniProt Q9HAU4: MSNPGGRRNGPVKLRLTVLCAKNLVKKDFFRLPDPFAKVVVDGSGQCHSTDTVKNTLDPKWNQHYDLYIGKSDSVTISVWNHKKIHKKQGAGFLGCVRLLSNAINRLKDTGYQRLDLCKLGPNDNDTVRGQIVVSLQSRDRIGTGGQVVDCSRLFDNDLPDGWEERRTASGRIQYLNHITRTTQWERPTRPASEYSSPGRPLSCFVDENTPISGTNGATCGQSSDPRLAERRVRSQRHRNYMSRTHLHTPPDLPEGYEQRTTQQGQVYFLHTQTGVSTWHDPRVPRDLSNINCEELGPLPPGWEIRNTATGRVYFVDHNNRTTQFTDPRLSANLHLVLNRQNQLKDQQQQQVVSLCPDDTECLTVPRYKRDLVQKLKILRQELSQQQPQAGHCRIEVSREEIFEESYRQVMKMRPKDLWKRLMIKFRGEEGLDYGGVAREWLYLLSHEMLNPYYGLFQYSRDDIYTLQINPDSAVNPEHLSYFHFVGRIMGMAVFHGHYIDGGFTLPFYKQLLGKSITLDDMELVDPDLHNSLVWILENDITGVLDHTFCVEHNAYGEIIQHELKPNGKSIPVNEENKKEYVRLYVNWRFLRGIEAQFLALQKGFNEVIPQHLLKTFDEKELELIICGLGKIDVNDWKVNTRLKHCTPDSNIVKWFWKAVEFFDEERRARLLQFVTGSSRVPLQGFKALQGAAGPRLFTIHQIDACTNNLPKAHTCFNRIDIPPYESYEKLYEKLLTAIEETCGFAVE
UniProt O00308: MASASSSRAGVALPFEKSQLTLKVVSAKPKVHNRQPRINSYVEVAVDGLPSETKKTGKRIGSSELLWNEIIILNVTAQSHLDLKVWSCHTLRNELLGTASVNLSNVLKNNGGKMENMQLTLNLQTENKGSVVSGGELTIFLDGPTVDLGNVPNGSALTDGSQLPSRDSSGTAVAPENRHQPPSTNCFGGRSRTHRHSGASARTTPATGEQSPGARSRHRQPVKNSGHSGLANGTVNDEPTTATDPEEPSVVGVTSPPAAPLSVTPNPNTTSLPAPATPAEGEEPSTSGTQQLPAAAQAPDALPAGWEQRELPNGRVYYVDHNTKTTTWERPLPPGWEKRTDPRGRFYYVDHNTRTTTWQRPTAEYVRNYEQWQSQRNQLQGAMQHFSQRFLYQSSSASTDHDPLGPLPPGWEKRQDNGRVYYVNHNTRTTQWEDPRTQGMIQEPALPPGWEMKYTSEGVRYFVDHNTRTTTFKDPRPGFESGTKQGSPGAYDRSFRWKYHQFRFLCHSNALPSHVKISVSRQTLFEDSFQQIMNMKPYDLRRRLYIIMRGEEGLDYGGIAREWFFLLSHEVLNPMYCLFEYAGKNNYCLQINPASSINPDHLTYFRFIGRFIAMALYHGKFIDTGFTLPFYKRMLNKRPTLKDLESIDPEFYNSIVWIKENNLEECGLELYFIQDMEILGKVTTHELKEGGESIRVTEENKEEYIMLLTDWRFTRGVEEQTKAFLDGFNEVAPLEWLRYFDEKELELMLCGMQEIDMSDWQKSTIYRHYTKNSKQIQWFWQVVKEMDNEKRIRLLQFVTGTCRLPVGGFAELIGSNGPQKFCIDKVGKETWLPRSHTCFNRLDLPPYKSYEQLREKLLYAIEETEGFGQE
UniProt Q96J86, residues 30-154: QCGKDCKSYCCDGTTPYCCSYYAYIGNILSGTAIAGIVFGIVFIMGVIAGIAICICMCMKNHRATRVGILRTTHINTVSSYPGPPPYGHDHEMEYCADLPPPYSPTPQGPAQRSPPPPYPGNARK
UniProt Q8IZ07: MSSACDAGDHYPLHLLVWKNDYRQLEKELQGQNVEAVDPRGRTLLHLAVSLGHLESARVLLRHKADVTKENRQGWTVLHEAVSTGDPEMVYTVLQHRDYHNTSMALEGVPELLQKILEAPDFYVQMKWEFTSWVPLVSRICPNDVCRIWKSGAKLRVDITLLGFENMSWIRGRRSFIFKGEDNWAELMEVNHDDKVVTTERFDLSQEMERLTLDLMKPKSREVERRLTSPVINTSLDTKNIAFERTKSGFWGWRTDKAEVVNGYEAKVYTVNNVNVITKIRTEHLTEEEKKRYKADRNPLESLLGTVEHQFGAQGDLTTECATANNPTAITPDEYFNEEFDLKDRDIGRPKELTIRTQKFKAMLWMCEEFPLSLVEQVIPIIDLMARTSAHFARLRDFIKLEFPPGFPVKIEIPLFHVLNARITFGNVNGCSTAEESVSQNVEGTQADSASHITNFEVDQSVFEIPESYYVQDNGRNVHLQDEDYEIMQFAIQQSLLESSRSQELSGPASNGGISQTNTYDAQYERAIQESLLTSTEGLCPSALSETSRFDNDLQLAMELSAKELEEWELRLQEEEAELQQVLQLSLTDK

Assays:
[1] = target: Flag-SMURF1-CA (catalytically inactive, C699A) (UniProt Q9HCE7); test: co-IP; HEK293 co-transfected with HA-CYYR1 and Flag-tagged E3s or E3 domains; lysis in TNMG buffer (20 mM Tris-HCl pH 8, 150 mM NaCl, 5 mM MgCl2, 0.5% NP-40, 10% glycerol); IP with anti-Flag overnight at 4 °C, protein G Sepharose; Western blot
[2] = target: Flag-SMURF2-CA (catalytically inactive, C716A) (UniProt Q9HAU4); test: as above
[3] = target: Flag-WWP1-CA (catalytically inactive, C890A) (human) (UniProt Q9H0M0); test: as above
[4] = target: Flag-WWP2-CA (catalytically inactive, C838A) (UniProt O00308); test: as above
[5] = target: GFP-CYYR1 (UniProt Q96J86); test: co-IP; HEK293 transfected with GFP, GFP-CYYR1 or GFP-CYYR1-K154R; lysate on GFP-Trap affinity resin; Western blot for the co-purified proteins
[6] = target: endogenous CYYR1 (human (endogenous in MDA-MB-468)) (UniProt Q96J86); test: co-IP; endogenous proteins in MDA-MB-468 cell lysate; IP with anti-CYYR1 antibody (IgG as control), Western blot; the antibody of the IP in Fig. S6B is not told

Substance | binding [1] | binding [2] | binding [3] | binding [4] | binding [5] | binding [6]
HA-CYYR1 (from UniProt Q96J86 30-154) | no binding | no binding | binds | binds |  | 
endogenous ANKRD13A (from UniProt Q8IZ07 1-590) |  |  |  |  | binds | binds
